Laboratory results published in ChEMBL document CHEMBL4888484, “Replenishing the malaria drug discovery pipeline: Screening and hit evaluation of the MMV Hit Generation Library 1 (HGL1) against asexual blood stage Plasmodium falciparum ,using a nano luciferase reporter read-out” (2022).
Hit rate of the full screen: of about 150,000 compounds, about 540 (0.36%) showed an effect of 50% or more. Some of the results follow.

system: Plasmodium falciparum; test: Primary screen in NF54 nanoGlo assay, in single point, at 2uM, 72h; a lower Z score goes with more inhibition; assay type: functional, Erythrocyte; settings: timepoint 72 hour

| Compound | % Inhibition | Z score |
| --- | --- | --- |
| Cn1ccnc1-c1cc(NC(=O)C[C@H](n2cccn2)C(F)(F)F)n(C)n1 | -6% | 0.81 |
| CCOc1cc2c(cc1CNc1nc(-c3ccc(OC)cc3)c(C#N)c(=O)[nH]1)O[C@@H](C)C2 | 5% | -0.95 |
| O=S(=O)(Cc1ccc(Cl)cc1)N1CCC[C@H](Cc2nc(C3CC3)no2)C1 | 26% | -3.44 |
| C[C@H](NCC(C)(C)C(N)=O)c1ccc(Br)cc1Br | 6% | -0.9 |
| CCn1c(-c2c(C)nc3ccccn23)nnc1N1CCNC(=O)C1 | -10% | 1.51 |
| Cc1cccc(-n2ncnc2CN2CCCC2)n1 | 2% | -0.26 |
| COc1ccc(CNC(=O)c2ncn(C[C@H](O)c3ccc(OC)cc3)n2)cc1 | -10% | 1.11 |
| COc1ccc2nc(-c3ccccc3)c(CN3CCCCCC3)c(O)c2c1 | -6% | 0.73 |
| CCCn1nc(C)nc1-c1cc(-c2ccccc2)n[nH]1 | -13% | 2.48 |
| CC(C)Cc1nc(CN(C)C(=O)c2cc(C(C)C)on2)no1 | -4% | 0.62 |
| Oc1cc(-c2cccs2)cc2c1OCCN(Cc1cc3ccccc3[nH]1)C2 | -4% | 0.73 |
| Cc1cc(C(=O)N2CCCS2(=O)=O)c(C)n1-c1nccs1 | -10% | 1.42 |
| CCC=C(C)C(=O)N(C)Cc1ccncc1 | -11% | 1.15 |
| COC(=O)[C@H](CC(C)C)NC(=O)c1cc(Cn2nc(C)cc2C)[nH]n1 | -2% | 0.38 |
| Cc1ccc(CC(=O)Nc2nc(-c3c(F)cccc3F)n[nH]2)cn1 | -3% | 0.32 |
| Cc1nccn1C[C@H]1CCCN(C(=O)c2c[nH]c3c(F)cccc3c2=O)C1 | 6% | -1.18 |
| COc1ccc(CC[C@H](C)N2CCOc3ccc(CN(C)CCc4ccccn4)cc3C2)cc1 | -16% | 2.21 |
| Cc1nn(CC(N)=O)c(C)c1-c1ccc(OCc2ccccc2)nc1 | -3% | 0.4 |
| CC(C)OCc1cc(C(=O)N2CCOCC(F)(F)C2)ccc1F | -11% | 1.43 |
| CC(C)(C)c1ccccc1CNC(=O)C1CCC(O)CC1 (stereo unspecified) | -6% | 0.59 |
| Cc1ncoc1C(=O)N1CCC2(CC1)C[C@H](CO)N(C(=O)c1ccccc1)C2 | 12% | -1.47 |
| Cc1nc(-c2ccc(S(N)(=O)=O)cc2)n(C2Cc3ccccc3C2)n1 | -5% | 0.76 |
| C#CCN(C)S(=O)(=O)c1c(C)cccc1F | 12% | -2.35 |
